# In the supplement of paper PMC3334620:
# The full ranking holds about 33,000 sequences; the median of “E-score (-0.5 to 0.5)” is about -0.041, and the highest 2% start at about 0.37. Some of the results follow.
# Biological target: T1, Ecm22 (UniProt Q05958)
# T1 sequence: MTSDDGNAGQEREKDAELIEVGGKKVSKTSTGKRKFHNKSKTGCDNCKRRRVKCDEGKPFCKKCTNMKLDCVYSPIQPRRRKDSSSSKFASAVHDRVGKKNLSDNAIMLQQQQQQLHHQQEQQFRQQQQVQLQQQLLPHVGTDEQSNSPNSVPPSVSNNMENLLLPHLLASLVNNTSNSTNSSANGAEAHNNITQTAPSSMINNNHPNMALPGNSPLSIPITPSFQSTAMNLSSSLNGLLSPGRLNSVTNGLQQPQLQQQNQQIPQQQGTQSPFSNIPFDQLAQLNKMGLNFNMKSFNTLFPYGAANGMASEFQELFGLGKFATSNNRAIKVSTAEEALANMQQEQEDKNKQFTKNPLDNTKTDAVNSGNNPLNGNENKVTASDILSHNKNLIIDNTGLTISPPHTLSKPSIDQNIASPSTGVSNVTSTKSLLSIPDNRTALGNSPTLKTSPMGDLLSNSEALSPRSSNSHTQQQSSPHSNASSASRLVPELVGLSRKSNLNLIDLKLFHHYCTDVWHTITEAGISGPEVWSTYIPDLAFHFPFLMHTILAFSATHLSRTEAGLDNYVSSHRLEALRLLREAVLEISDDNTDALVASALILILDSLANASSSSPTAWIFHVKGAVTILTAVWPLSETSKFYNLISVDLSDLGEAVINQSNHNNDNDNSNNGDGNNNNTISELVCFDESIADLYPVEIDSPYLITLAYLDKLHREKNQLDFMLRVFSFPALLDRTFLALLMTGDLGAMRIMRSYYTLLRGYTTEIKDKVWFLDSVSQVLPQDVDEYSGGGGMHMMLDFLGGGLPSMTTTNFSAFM
# Test: PBM E-score (8-mer binding enrichment) (E-score (-0.5 to 0.5)); higher = stronger / more preferred TF binding; most listed sequences are background and not binding sites
# Conditions: protein concentration: 200 nM; construct: GST-full length
# How it was run: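 Using PURExpress in vitro transcription/translation, GST-tagged yeast transcription factors were made in full-length or DNA-binding-domain form. These were applied at about 100-200 nM to double-stranded universal all-10-mer Agilent arrays, and bound protein was detected with fluorescent anti-GST. Scans were normalised with masliner before the Universal PBM Analysis Suite assigned E-scores to ungapped eight-base words pooled with their reverse complements.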
row,Sequence,PBM E-score
1,TCCCCTAA,-0.157
2,CTTGACGC,-0.152
3,GTCGGAGA,0.0362
4,ACTGCTGC,-0.164
5,CTGCGTAA,0.0728
6,ACCAATAA,-0.0726
7,CACCCAAA,-0.0261
8,CTTTTGCA,-0.153
9,AAATTCAG,0.158
10,CCATAGGA,-0.28
11,TCCAGGAA,-0.135
12,ACCTTACG,0.272
13,GGATATTA,-0.0495
14,CAACTCAG,-0.17
15,AGATGCAT,-0.0899
16,CATGATGC,-0.059
17,ATAGCTTA,-0.0124
18,AACGTCGG,0.17
19,ATGGCTAG,-0.0274
20,GCAGCCCC,-0.0279
21,ATGGCGCG,-0.174
22,CGTGTGCC,-0.122
23,AGGAGACC,-0.248
24,CCGTGCGC,0.0144
25,ATTTTCAG,-0.0614

row,Sequence,PBM E-score
1,TCGACAAA,0.178
2,GCTAGCCC,-0.379
3,ATCCTCTA,-0.175
4,GGTAAGAA,-0.0741
5,AGTAATGC,-0.0773
6,AACCGAGA,0.312
7,GTAAACCA,0.0466
8,CTAGCGGA,-0.138
9,CACGCGGG,0.0145
10,CGAGGCTC,0.24
11,ATTCGTAG,0.325
12,CTCCCCAC,-0.241
13,GGCAGGCC,-0.199
14,CCCCCCGC,-0.098
15,GCTGTGCA,-0.0109
16,CAAAGGTG,-0.207
17,GGCCAGCA,-0.296
18,CCAGGTTC,-0.143
19,AATCCTAT,-0.0603
20,CCATCAGC,-0.0522
21,CCCAATCC,-0.164
22,GGAGACAA,0.088
23,CTTTCCTC,-0.19
24,GCGACCCA,-0.0112
25,AGAGGATA,-0.0783

row,Sequence,PBM E-score
1,AGTGGTAC,0.164
2,ATGATCCG,0.0821
3,GTTCCGGA,0.176
4,CCTGCCAG,-0.298
5,ACGTTCCG,0.259
6,ATGCAGCG,-0.176
7,AAAACGAC,0.363
8,AGAATAGG,0.13
9,AGCTTCGC,0.111
10,TATTGTGA,-0.0113
11,CGTCCTAG,-0.202
12,AAAGACTA,-0.0696
13,ATCTAATA,0.193
14,CCCCATCA,-0.255
15,CAGCTATC,-0.19
16,ACTAGACA,-0.163
17,CGTAGATC,0.204
18,ATCCCCAT,-0.141
19,CCGTACGC,0.324
20,ATGTATGC,0.0457
21,GCGGGAGC,-0.092
22,AAGCCGGT,-0.132
23,CAAGGGAG,0.062
24,AGCCATTC,-0.0808
25,CTTGTCAA,-0.224

row,Sequence,PBM E-score
1,AATAATAT,0.106
2,AGGAGAAG,-0.0156
3,AGTACGAC,0.443
4,GACATCTA,0.11
5,CACGTGTA,0.113
6,CCACATGG,-0.101
7,CGAGGCCG,0.209
8,AAGTCTGA,-0.252
9,CTAGGGAC,-0.323
10,CAGCCATA,-0.0379
11,GTGTCTCA,-0.0959
12,CACAGAAC,0.00026
13,GAGGTCCA,-0.209
14,CAAACTGG,-0.127
15,ACGGGGAT,0.241
16,GCAGTAGC,-0.182
17,AACGAATA,0.371
18,CACCCTCG,0.217
19,AGGCAATA,-0.197
20,TTGGAAAA,-0.0386
21,CTTGGGTC,-0.199
22,TCGAGTAA,0.0861
23,AGCTGTTG,-0.22
24,ATGAGAAG,-0.105
25,AGGCGCCT,-0.0378

row,Sequence,PBM E-score
1,ACGCGAGC,0.29
2,ATGGTTTC,-0.0126
3,CAATTGGA,-0.231
4,ACCGGGCG,0.0784
5,AGTACTGA,-0.111
6,ATGCTAGC,0.0414
7,AATCAGTC,-0.101
8,ACTATCAG,-0.157
9,CAGACCGC,0.113
10,AGATCTCG,0.211
11,CCAAAAAC,0.0377
12,CACATTCA,-0.239
13,AAGCAAGA,-0.156
14,ACCATTGA,0.00707
15,CTTATAGA,-0.11
16,GACAATCC,-0.0332
17,TAAGTCAA,-0.0996
18,GTATCGTA,0.421
19,TCGACCGA,0.0211
20,ACCACGCC,0.00537
21,GCCTACGA,0.256
22,CGGCCCGA,-0.00302
23,CAACCCCC,-0.3
24,CAACACGA,0.162
25,CGAATAAG,0.217

row,Sequence,PBM E-score
1,CAAGTCCA,-0.304
2,AACGCAAG,0.0162
3,GCTGCTTA,0.0355
4,GACTAACC,-0.167
5,ACATAGTG,0.0572
6,CCAATTGG,0.159
7,CCGTTTTA,0.185
8,CGCTCGAA,0.0161
9,GACAAGTA,0.0842
10,ACAAACCG,0.0719
11,AGAGCTTC,-0.177
12,AAACCACA,-0.0246
13,AGGTCCTG,-0.0668
14,ACGAAACG,0.411
15,GGTGGATA,-0.0465
16,CACTCAAC,0.0404
17,TAGATAAA,0.057
18,CACCGGGG,-0.166
19,GATACTGC,-0.00778
20,ATCTGAAA,-0.034
21,AGACGTCC,-0.23
22,CCCTGTAG,-0.28
23,CGGTGGGA,-0.00705
24,CCCACAAC,-0.123
25,ATAGGCCA,0.107

row,Sequence,PBM E-score
1,CACTCGCA,0.133
2,AAAACTCT,-0.179
3,ATTCACTG,-0.249
4,AGCGTGCA,0.0259
5,CTAATGGC,-0.207
6,GAATCGGC,0.0339
7,GATGGACA,-0.124
8,CACCCATA,-0.058
9,CAAAGACC,-0.0983
10,GTTCAAAA,0.0321
11,CCAGGTTA,-0.0408
12,CTATGATC,-0.0914
13,ATAACTAG,-0.171
14,GACGCACA,-0.0996
15,ACCCTGAG,-0.198
16,ACCGGCTC,-0.0882
17,ACACCTCA,-0.201
18,ACTCTCGG,0.0866
19,TCCGAAAA,0.00572
20,ACGTGACC,-0.00344
21,GTGAGAGA,-0.3
22,CATCTGAG,-0.169
